# Reference: the supplement of paper PMC3334620
# Whole data set: some 33,000 sequences, median “E-score (-0.5 to 0.5)” near -0.016, cut for the highest 2% near 0.32. This is one part of the list.
# Molecular target: T1, Stp1 (UniProt B3LFK1)
# T1 sequence: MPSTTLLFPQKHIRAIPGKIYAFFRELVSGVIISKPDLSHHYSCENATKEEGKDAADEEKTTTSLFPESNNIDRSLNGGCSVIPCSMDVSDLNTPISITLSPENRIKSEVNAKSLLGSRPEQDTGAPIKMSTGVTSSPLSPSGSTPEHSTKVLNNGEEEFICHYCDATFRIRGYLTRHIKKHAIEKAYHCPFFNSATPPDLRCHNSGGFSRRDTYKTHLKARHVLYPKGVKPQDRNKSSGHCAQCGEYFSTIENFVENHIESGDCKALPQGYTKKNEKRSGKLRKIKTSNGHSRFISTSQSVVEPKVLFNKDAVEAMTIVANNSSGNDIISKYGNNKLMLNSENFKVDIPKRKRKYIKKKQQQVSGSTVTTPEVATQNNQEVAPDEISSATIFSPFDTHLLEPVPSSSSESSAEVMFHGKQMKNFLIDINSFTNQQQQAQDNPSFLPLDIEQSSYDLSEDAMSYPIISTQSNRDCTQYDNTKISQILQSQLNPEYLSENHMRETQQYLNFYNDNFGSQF
# Test: PBM E-score (8-mer binding enrichment) (E-score (-0.5 to 0.5)); higher = stronger / more preferred TF binding; most listed sequences are background and not binding sites
# Settings: protein concentration: 200 nM; construct: GST-full length
# Summary of the method: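 PURExpress in vitro transcription/translation supplied GST-tagged yeast transcription factors, either full-length or DNA-binding domain. Applied at about 100-200 nM to universal all-10-mer Agilent arrays double-stranded by primer extension, the bound protein was detected with fluorescent anti-GST. E-scores, modified Wilcoxon-Mann-Whitney statistics, were given by the Universal PBM Analysis Suite to ungapped eight-base words pooled with their reverse complements after masliner normalisation.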
row,Sequence,PBM E-score
1,CAATTACG,0.0559
2,GACTATAA,0.112
3,ACTGATCC,-0.0501
4,AACCACCC,-0.136
5,ATTTTGAC,0.161
6,GCCCAGCC,-0.00405
7,AAAACGGT,-0.0136
8,CTACCGAC,0.00731
9,CGTCCCGA,-0.0925
10,ACACGTAT,0.13
11,CAGAACGG,0.119
12,CCCTAGAA,-0.0371
13,TACGCGGA,0.103
14,ACGCCGCG,0.473
15,AATAGCCC,-0.162
16,ATTGGTTA,0.0929
17,CGGAAATA,0.169
18,AACTGCTT,-0.0831
19,ATGCTGGC,-0.137
20,ACGATCAC,-0.0583
21,CGAAATTC,0.0652
22,AAGTACCT,-0.144
23,GGTTGCAA,0.0623
24,CCCGAACA,-0.0755
25,AGAATGTA,0.173

row,Sequence,PBM E-score
1,ATGGACAC,0.0252
2,CTGCTTTC,-0.0352
3,AAGTAAAT,0.181
4,GCATATGC,0.0115
5,ACGCCGGC,0.168
6,AGCAAGAG,-0.0538
7,GAGGATAA,-0.0242
8,ACTGAACA,0.158
9,AGGGCTGA,-0.172
10,TACACATA,0.125
11,AGGTAGCG,-0.105
12,AGCTGTGC,0.154
13,AAGCATGC,-0.0122
14,GAAAAGAA,0.0978
15,CAGGATGC,0.0245
16,ACGCGGCA,0.479
17,CGGTAGCA,-0.112
18,AGGGCCGA,0.0233
19,TCTGCAGA,0.0477
20,TCTACGAA,-0.0374
21,GTATTTAA,0.117
22,ATTTTCCC,-0.00016
23,GGCACACC,0.0187
24,CGACTAAG,-0.122
25,ATAGATAT,0.0773

row,Sequence,PBM E-score
1,ACAACCTG,-0.155
2,ATACACCA,-0.0952
3,AGTGGGAG,-0.167
4,AGTGTCGC,-0.0791
5,GCCTCGAC,0.0115
6,ACGTAAGG,0.0644
7,CCATACTA,-0.0681
8,CTCGTACC,-0.12
9,ATTTGATA,0.092
10,AGCATACT,-0.0298
11,AGATCTAG,-0.143
12,ATTCGCTC,-0.0527
13,CGAAGTCA,0.0593
14,TATTGCCA,0.049
15,GCGCTGGA,-0.012
16,AGCGTTGG,-0.127
17,GCTGCCCA,-0.159
18,AAGATGGA,-0.0599
19,GCTAATCA,0.141
20,GAGCACTA,-0.0755
21,ATCGCAAA,0.262
22,ATTCGTAC,0.117
23,AAGAGATA,-0.0543
24,AAATGTAG,0.0859
25,TACAATCA,0.15

row,Sequence,PBM E-score
1,ACAGCTCC,-0.0705
2,GATGTTCC,-0.066
3,ACGTCAAC,0.0286
4,TACTCCAA,-0.145
5,CTTCAGTC,-0.227
6,TCTTCGCA,0.167
7,AACGAAGG,-0.277
8,CGTGCTAA,0.0353
9,CCATTTGA,0.039
10,ACCCTCCC,-0.143
11,AATCTTGT,0.0987
12,GTCGCAGA,0.0742
13,GATCGACA,0.013
14,AGTCTAGA,-0.201
15,TCCAAGGA,-0.105
16,GATCAGGC,-0.132
17,ATTGAGTG,0.213
18,CCGCGGAG,0.0416
19,CAGACATA,0.189
20,CCTTCAGC,-0.211
21,GTCTTCAA,-0.206
22,ATACATCA,-0.074
23,ACTAGCGA,-0.0319
24,AAACGGCA,0.467
25,AATTCGCA,0.111

row,Sequence,PBM E-score
1,GGCGTAGA,0.113
2,CGAGCTCG,0.079
3,CTAACACC,-0.182
4,CAGAGGTA,0.062
5,GGATCCAC,-0.251
6,GATGCCGC,0.466
7,GGGCTCAA,0.055
8,CTAGAATA,0.145
9,ATACTCGC,-0.0916
10,GACACTAC,-0.135
11,CCCTACGG,0.0558
12,CGCGTAGC,0.132
13,GATCACGA,-0.182
14,CTGGGGCC,-0.253
15,AAACAAGT,0.0921
16,GCAATGGA,-0.0392
17,ACTACCGG,-0.257
18,CGCTAATA,0.13
19,GTTAAACA,0.114
20,CTGCCTCA,-0.0442
21,GATTAGCA,-0.0596
22,TCGCAACA,0.0221
23,ATTGACCA,-0.14
24,AAGTGGCA,0.216
25,GATGCCCC,-0.129

row,Sequence,PBM E-score
1,AGCCCCGC,0.0297
2,ACCACGTC,-0.261
3,CTCTCGTA,-0.17
4,AGCAGTAC,-0.00747
5,TGGTCACA,0.171
6,GGGGAACC,-0.44
7,AGCAACCT,-0.124
8,CTGACCAA,-0.0478
9,GCACCCCC,-0.218
10,ACCGTGAT,0.019
11,ACCGGGTG,-0.0524
12,ACCTGACG,-0.0576
13,AACAGGTG,-0.023
14,CCAAATCG,-0.0172
15,CCTCAGAC,-0.129
16,GGGGTACA,-0.174
17,ACAATACC,0.0539
18,GCAATTCC,0.0563
19,ATGTTGAG,0.0235
20,AACTTTGG,0.0575
21,ACCACATC,-0.00633
22,ACTGCCCG,-0.0566
23,TAGGCCCA,-0.239
24,CTCAAACA,0.15
25,AAAGTAGG,0.118

row,Sequence,PBM E-score
1,AGAGGCTG,-0.122
2,ACATGTAA,0.215
3,GCCTTGGA,0.202
4,AACTCTCT,-0.202
5,GTTGACTA,-0.139
6,ACGATAAA,0.077
7,ACGTCCCT,-0.115
8,ATATCTGC,0.023
9,ATATTAAT,0.158
10,GGCGCTTA,0.285
11,ATCTAGCA,0.0426
12,ATTGCACC,-0.0584
13,CCTTGATA,0.117
14,TAAATTAA,0.0479
15,ACGACAAC,0.167
16,ATGTGAAC,-0.0297
17,AGCGCTTA,-0.0828
18,ACCACAGA,-0.201
19,AAATCGTC,0.0317
20,AGAGCCAG,-0.231
21,CATCTCGG,-0.12
22,ATATGACG,0.0594
